Measured values taken from PubChem BioAssay AID1508623 (National Center for Advancing Translational Sciences (NCATS), 2021).
About 450 (0.94%) of roughly 48,000 compounds were called active. About 19% were inconclusive and are not listed. The call rests on the fitted dose curve; in most records, active means well fitted inhibition curve with a large enough effect; inconclusive means small, poorly fitted or top-dose-only effect; inactive means no such curve, though single readings can be large or run the other way. This is one part of the list.

Assay: Primary qHTS for Identification of Small Molecule Inhibitors of Huntingtin Promoter Activity; further: nearly all actives have a fitted effect of over 50% in size
Conditions: HEK293 HTT promoter firefly luciferase reporter (activity 0% = vehicle and -100% = no light), 24 h; series mostly up to 57.5 µM; activity change, negative = inhibition: at the top concentration
Procedure, shortened: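 Firefly luciferase readout (Dual-Glo, 10 min RT) after 24 h, 37 °C compound exposure (final up to 57.5 uM) of HEK293 reporter cells cultured 24 h beforehand; PTC124 at 50 uM final as control inhibitor; activity scaled vehicle 0%, zero RLU -100%.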

Activity change, negative = inhibition, inactive:
Cc1ccc(CNC(=O)Cn2cccc2C(=O)c2ccccc2C)cc1 20.2%, Cc1cccc(OCC(=O)Nc2nonc2-c2ccc(Br)cc2)c1C -30.1%, CCOc1ccc(CC(=O)Nc2ccc3c(c2)N(C)C(=O)c2ccccc2S3)cc1OCC -17.8%, O=C(COc1ccc(Cl)cc1)Nc1sc2c(c1C(=O)Nc1cccc(Cl)c1)CCCC2 -4.44%, Cc1cccc(C)c1-n1ncc(C(=O)NCc2ccc3c(c2)OCO3)c1C1CCN(C(=O)OC(C)(C)C)CC1 -18.2%, CCc1ccc(OCC(=O)N(Cc2ccc(C)cc2)Cc2ccco2)cc1 -23.9%, O=C(Nc1ccc(OC(F)(F)F)cc1)C1CCCN(S(=O)(=O)c2cccc3nonc23)C1 (configuration not stated) -19.1%, CCCCN(C)CCCNC(=O)c1cc(=O)[nH]c2ccc(S(=O)(=O)N3CCCCC3)cc12 -8.92%, CCC1=Nc2cc(C(=O)NC(C)c3ccccc3)ccc2Sc2ccc(Cl)cc21 (configuration not stated) -16.9%, COCCCNC(=O)CN1C(=O)COc2ccc(S(=O)(=O)N3CCCCCC3)cc21 -15.6%, Cc1cccc(-n2cc(-c3ccccc3)c3c(NC(C)C)ncnc32)c1 -21.9%, Cc1ccc(NC(=O)CSc2nc(-c3ccc(F)cc3)nc3c2Cc2c(CO)cnc(C)c2O3)cc1C -14.4%, COC(=O)c1ccccc1NC(=O)CN(c1ccccc1OC)S(C)(=O)=O -13.9%, CN(Cc1ccccc1)C(=O)CCS(=O)(=O)c1cc(Br)cc2c1N(C(=O)C1CC1)CC2 -15.4%, O=C(COc1ccccc1F)Nc1ccccc1OCc1cc(=O)n2ccccc2n1 5.15%, CN1C(CCl)Nc2cc(Cl)c(S(N)(=O)=O)cc2S1(=O)=O (configuration not stated) 3.29%, CC1CCN(C(=O)Cn2cc(SCc3ccccc3)c3ccccc32)CC1 -15.5%, CCCc1nnc(N2C(=O)c3oc4ccc(F)cc4c(=O)c3C2c2ccc(C(=O)OC)cc2)s1 (configuration not stated) 4.74%, COc1ccccc1OCC(=O)Nc1nnc2n1CCS2 13.5%, O=C(C1CCC1)N1CCc2cc(S(=O)(=O)N3CCN(c4ccccc4)CC3)ccc21 -17.3%, CCOc1ccc(-n2cc(C(=O)Nc3ccccc3OCC)c3cc(OC)c(OC)cc3c2=O)cc1 -24.9%, COc1cc2ccccc2cc1C(=O)N1CCN(c2nc3c(C)cc(C)cc3s2)CC1 -15.1%, CC1CCN(C(=O)Cn2cc(SCc3cccc(F)c3)c3ccccc32)CC1 -17.4%, CCc1ccccc1NC(=O)N1CCN(c2nnc(C)c3c(C)n(-c4ccccc4)nc23)CC1 -9.74%, Cc1ccc2nc(-c3ccccc3O)c(Nc3ccccc3C)n2c1 -17.8%, O=c1cc(-c2ccccc2)nc(SCc2nc(-c3ccc(C(F)(F)F)cc3)no2)[nH]1 0.78%, CCc1cccc(N(C)C(N)=Nc2cccc3ccccc23)c1 -12.6%, CC(C)(C)c1ccc(-c2nc3cc(NC(=O)c4cc5ccccc5o4)ccc3o2)cc1 -33.5%, CCCOc1ccc(-c2nc3ccccc3c(=O)o2)cc1 65.6%, COc1ccc(NC(=O)NC2COc3ccccc3C2)c(OC)c1 (configuration not stated) 0.405%, CC(C)c1ccc(NC(=O)C2CCN(S(=O)(=O)c3cccc4nsnc34)CC2)cc1 -12%, O=C(Cn1ccn(-c2cccc(Cl)c2)c(=O)c1=O)NCCc1ccccc1 -14.1%, CC(=O)NS(=O)(=O)c1ccc(N)cc1 -2.51%, Cc1c(C(=O)Nc2nc(-c3ccc(F)cc3)ns2)oc2ccc(Br)cc12 -1.89%, CN(CC(=O)Nc1cccc(Cl)c1)S(=O)(=O)c1ccc2[nH]c3c(c2c1)CCCC3 -4.27%, COc1ccc2c(c1)cc(CNc1ccc(OC)c(OC)c1)c(=O)n2CC(=O)Nc1ccc(F)cc1 -28.4%, Cc1c(C(=O)Nc2ccc(F)c(F)c2)oc2ccc(S(=O)(=O)N3CCCCC3)cc12 -31.5%, Cc1cn([C@H]2C=C[C@@H](CO)O2)c(=O)[nH]c1=O, O=S(=O)(NCC(c1ccco1)S(=O)(=O)c1ccccc1)c1ccccc1 (configuration not stated) -15.3%, COc1ccc(N2CCN(C(=O)CCc3c(C)nc4c(-c5ccccc5)c(C)nn4c3C)CC2)cc1 -29.7%, COc1ccccc1CNC(=O)CCCCn1c(=O)c2ccccc2n(Cc2c(C)cc(C)cc2C)c1=O 2.81%, CC1=C(C(N)=O)C(c2ccc(C(C)C)cc2)n2nc(SCc3ccccc3)nc2N1 (configuration not stated) -6.6%, Cc1cc(C)n2nc(SCC(=O)Nc3cc(Cl)ccc3C)nc2n1 -8.74%, COC(=O)c1ccc(NC(=O)CCc2c(C)nc3c(c(C)nn3-c3ccc(C)cc3)c2C)cc1 -12.7%, COc1ccc(CCNc2nc(-c3ccc(C)cc3)cc(C(F)F)n2)cc1OC -1.02%, Cc1cccc(NC(=O)c2oc3c(c2C)-c2[nH]ncc2CC3)c1C 36.6%, Oc1c(C(c2ccccc2F)N2CCOCC2)sc2nc(-c3ccco3)nn12 (configuration not stated) 19.9%, Cc1nc2c(C(=O)NCc3ccccc3Cl)c[nH]n2c(=O)c1Cc1cccc(Cl)c1 -20.9%, CC(NC(=O)CSc1n[nH]c(-c2ccccc2Cl)n1)c1nc2ccccc2n1C (configuration not stated) -8.02%, CCOc1ccc(NC(=O)CN2CCN(Cc3ccccc3)S2(=O)=O)cc1 -13.8%, Cc1cc(=O)[nH]c2nnc(SCc3ccc(Cl)c(Cl)c3)n12 -13.1%, CCCCN(C)CCCNC(=O)CN1C(=O)COc2ccc(S(=O)(=O)N3CCC(C)CC3)cc21 -13.1%, CCOC(=O)N1CCc2c(sc(NCc3sccc3C)c2C(=O)Nc2cc(OC)ccc2OC)C1 -18.7%, CCOc1ccccc1-n1c(C)nc2cc(C(=O)O)ccc21 -0.99%, N#C/C(=C\c1ccc(F)cc1)C(=O)NCC1CCCO1 (configuration not stated) 1.77%, Cn1cnc(S(=O)(=O)N2CCCC(C(=O)NCc3ccccc3Cl)C2)c1 (configuration not stated) -19.9%, Cc1ccc(CCNC(=O)C(CC(C)C)NS(=O)(=O)c2ccc3c(c2)oc(=O)n3C)cc1 (configuration not stated) -6.72%, CSc1ncc(Cl)c(C(=O)Nc2c(C(=O)c3ccc(C)c(F)c3)oc3ccccc23)n1 -7.26%, COc1cccc(NC(=O)CCc2nc(-c3cccs3)no2)c1 -22.7%, Cc1cc2[nH]c(=O)c(=O)[nH]c2cc1S(=O)(=O)Nc1ccc(OC(F)(F)F)cc1 -3.3%, COc1cccc(CNC(=O)C(Cc2ccccc2)NS(=O)(=O)c2ccc3c(c2)oc(=O)n3C)c1 (configuration not stated) -15.7%, Cc1cccc(OC(=O)c2cc(-c3ccc4c(c3)OCCO4)on2)c1C 9.29%, Cc1cccc(N2CCN(c3ccc(NC(=O)c4ccccc4)cc3C(=O)O)CC2C)c1 (configuration not stated) -9.65%, Cc1cccc(NC(=O)c2ccc3nc(CCc4ccccc4)oc3c2)c1C 28.6%, Cc1ncc(CO)c2c1Oc1nc(-c3ccc(F)cc3)nc(SCc3ccc(F)cc3Cl)c1C2 -19.4%, O=C(NCc1ccc(F)cc1)c1ccc2c(c1)nc1n2CCCCC1 29.1%, COc1ccc(-c2noc(-c3nnn(-c4ccc(C(C)C)cc4)c3C)n2)cc1OC 3.14%, CCCS(=O)(=O)N1CCC(N2CCN(Cc3ccc(F)cc3)C(=O)C2=O)CC1 19.1%, O=C(Nc1ccccc1)c1ccc2c(O)c(S(=O)(=O)c3ccc(Cl)cc3)c(=O)[nH]c2c1 -13%, CCOC(=O)c1ccc(NC(=O)CN2Cc3ccccc3C2=O)cc1 -7.69%, COc1ccccc1C(=O)Nc1onc2c1CCCC2 -25%, CCn1cc(C(=O)N2CCN(c3ccc(OC)cc3)CC2)c2cc(OC)c(OC)cc2c1=O 1.15%, O=S(=O)(c1ccc2nc(Nc3cccc(F)c3)ccc2c1)N1CCCC1 -4.07%, Cc1ccccc1Cn1c2ccccc2c2cnn(CC(=O)N3CCC(C)CC3)c(=O)c21 -20%, CCc1ccc(NC(=O)N2CCC(N3CCN(Cc4ccc(C)cc4)C(=O)C3=O)CC2)cc1 1.14%, COc1ccc(-c2cc3nccc(-c4cc(Cl)c(C)cc4O)n3n2)cc1 -24.1%, CCOc1ccccc1NC(=O)CSC1=Nc2ccccc2C2=NC(CC(=O)NCc3ccc4c(c3)OCO4)C(=O)N12 (configuration not stated) -20.9%, Cc1nn(CC(=O)NCCc2ccccc2)c(=O)c2c1sc1ccccc12 -8.62%, O=c1cc(-c2ccccc2)n2c(SCc3ccc(Br)cc3)nnc2[nH]1 -9.37%, Cc1cc2nc(N(Cc3cccnc3)C(=O)c3ccc(Cl)s3)sc2cc1C -15.5%, Cc1ccc(S(=O)(=O)NCC(c2ccc(N(C)C)cc2)N2CCc3ccccc32)cc1 (configuration not stated) -16.6%, CC(=O)N1c2ccc(S(=O)(=O)N(C)CC(=O)N(Cc3ccccc3)C(C)C)cc2CC1C (configuration not stated) -25.3%, CC(C)(C)c1ccc(C(=O)N2CCN(CCc3ccccn3)CC2)cc1 -19.9% [at 11.5 µM], CCN(Cc1ccccc1)Cc1c(O)ccc2oc(C)c(C(=O)Nc3ccccc3C)c12 -34.7%, O=C(Cc1ccccc1)Nc1nnc2n1CCS2 2.03%, CCC(C)NC(=O)Cn1c(=O)n(-c2ccc(C)c(C)c2)c(=O)c2c(C)c(C(=O)N(CC)CC)sc21 (configuration not stated) 0%, C=CC(=O)Nc1cc2c(Nc3ccc(F)c(Cl)c3)ncnc2cc1C#CC(C)(C)N1CCN(C)CC1 -3.12%, CCOc1ccccc1C(=O)N1CC(=O)Nc2ccc(C)cc2C1c1ccccc1 (configuration not stated) -21%, CCOc1ccccc1NC(=O)N1CCc2c(sc3c2CCCC3)C1c1ccccc1 (configuration not stated) -29.6%, Cc1nn2c(=O)cc(COc3ccc(/C=C(\C#N)C(=O)Nc4ccccc4)cc3Cl)nc2s1 -18%, CNC1CCC(N(Cc2cccc(-c3ccncc3)c2)C(=O)c2sc3c(F)ccc(F)c3c2Cl)CC1 (configuration not stated) -14.5%, O=C(OCc1ccccc1Cl)c1ccc(-c2nnn(Cc3ccc(F)cc3)n2)cc1 -15.6%, Brc1ccc2c(c1)NC(c1cccnc1)=NC(c1ccccc1)=N2 48.5%, CCOc1cc(C(=O)NCc2nc(-c3cccc(C)c3)no2)cc(OCC)c1OCC -1.92%, COC(=O)c1ccccc1NC(=O)c1cc(CN2CCOCC2)on1 2.68%, O=C(CSc1nc2ccccc2nc1Cc1ccccc1F)Nc1cccc(C(F)(F)F)c1 -12.6%, COc1ccc(-c2cc3nc(C)c(CCC(=O)N4CCN(c5ccccc5F)CC4)c(C)n3n2)c(OC)c1 -13.4%
